Drawing on PubChem BioAssay AID1745853 (National Center for Advancing Translational Sciences (NCATS), 2022), this text covers activity change, negative = inhibition for 30 molecules.

What all share (assay): Primary Screen for Target Class Profiling of Small Molecule Inhibitors of Methyltransferases
Assay [1] has as its target Glycine N-methyltransferase (Homo sapiens) (UniProt Q14749). As to conditions: purified enzyme, MTase-Glo SAH luminescence; measured here: GNMT inhibition; at 40 µM; stronger effect = lower value. The gist of the method: (§1)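 Each enzyme was reacted with SAM and its substrate, with compounds tested once at 40 uM; SAH formed was read by MTase-Glo luminescence.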
The target of assay [2] is Guanidinoacetate N-methyltransferase (Homo sapiens) (UniProt Q14353). Particulars: purified enzyme, MTase-Glo SAH luminescence; measured here: GAMT inhibition; at 40 µM; stronger effect = lower value. The gist of the method:
as §1

The target in assay [3] is Histamine N-methyltransferase (Homo sapiens) (UniProt P50135). Particulars: purified enzyme, MTase-Glo SAH luminescence; measured here: HNMT inhibition; at 40 µM; stronger effect = lower value. In short, it runs like this: as §1
Assay [4] has as its target Nicotinamide N-methyltransferase (Homo sapiens) (UniProt P40261). As to conditions: purified enzyme, MTase-Glo SAH luminescence; measured here: NNMT inhibition; at 40 µM; stronger effect = lower value. The gist of the method:
as §1

Assay [5] addresses Phenylethanolamine N-methyltransferase (Homo sapiens) (UniProt P11086). As to conditions: purified enzyme, MTase-Glo SAH luminescence; measured here: PNMT inhibition; at 40 µM; stronger effect = lower value. In short, it runs like this: as §1

Molecules are shown by their SMILES. The list shows a part of the results. Shown are side measurements of this screen, not its main read-out; they come without a call.
On the % scale 0 is the no-effect control and ±100 the full control effect.

In the case of `CC(=O)c1ccc(O[C@@H]2O[C@H](CO)[C@@H](O)[C@H](O)[C@H]2O)cc1`, the activity change, negative = inhibition in assay [1] is 3.45%; in assay [2] it was 0.392%; in assay [3], 4.45%; in assay [4], -9.31%; in assay [5], -8.08%.
Consider `Cc1noc(C)c1-c1cc(-c2ccc(CN(C)C)cc2)cn2cncc12`, for which the activity change, negative = inhibition in assay [1] is -22.3%; in assay [2], -3.53%; in assay [3], -74.2%; in assay [4], -9.36%; in assay [5], -22.7%.
Turning to `CNC(=O)c1cc(C2CC2)nc2onc(C3CCCN(C(=O)c4ccccc4OC)C3)c12` (stereo not given), the activity change, negative = inhibition in assay [1] was -2.03%; in assay [2] it was 0.768%; in assay [3], 1.25%; in assay [4], -6.55%; in assay [5], 0.105%.
Take `CC(C)N1C[C@@H]2OCC(=O)N(Cc3ccccc3)[C@@H]2C1`: the activity change, negative = inhibition in assay [1] was -5.92%; in assay [2] it was -5.87%; in assay [3], -4.93%; in assay [4], -5.59%; in assay [5], -1.39%.
Turning to `O=C(CC1CCOCC1)Nc1ccc(N2CCOCC2)cc1`, the activity change, negative = inhibition in assay [1] is 1.76%; in assay [2], -0.854%; in assay [3] it was 2.26%; in assay [4] it was 0.692%; in assay [5], -3.82%.
In the case of `C=C1C(=O)OC2CC3(C)C(O)C(=O)C=C(C)C3CC12` (stereo not given), the activity change, negative = inhibition in assay [1] is -3.29%; in assay [2], 4.64%; in assay [3], 6.43%; in assay [4] it was -6.51%; in assay [5], 7.95%.
In the case of `COc1ccccc1CNC(=O)C1(C)Cn2c(cc3ccccc32)C(=O)N1Cc1ccccc1Cl` (stereo not given), the activity change, negative = inhibition in assay [1] was -6.07%; in assay [2], -0.612%; in assay [3] it was -9.04%; in assay [4], -15.3%; in assay [5] it was -9.37%.
Regarding `CC(C)=CCC[C@](C)(O)[C@H]1CC[C@]2(C)[C@@H]1[C@H](O)CC1[C@@]3(C)CC[C@H](O)C(C)(C)C3[C@@H](O[C@@H]3O[C@H](CO)[C@@H](O)[C@H](O)[C@H]3O[C@@H]3OC[C@@H](O)[C@H](O)[C@H]3O)C[C@]12C` (stereo not given in full), the activity change, negative = inhibition in assay [1] is 4.69%; in assay [2], 4.76%; in assay [3], 10.3%; in assay [4], -7.06%; in assay [5], 2.04%.
On to `CN1C(=O)c2cc(C(=O)NCCCN3CCCCC3)nn2CC1(C)C(=O)NCc1ccccc1` (stereo not given), for which the activity change, negative = inhibition was 5.59% in assay [1]; 1.82% in assay [2]; 1.83% in assay [3]; 5.54% in assay [4]; 4.19% in assay [5].
The like results for `COc1cccc(CN2C(=O)c3cc(-c4ccco4)nn3CC2(C)C(=O)NC2CCCCCC2)c1` (stereo not given) were, in that order, -3.73%, 2.45%, -2.88%, -13.9% and -6.47%.
`COc1cccc(N2C(=O)c3cc4sccc4n3CC2(C)C(=O)NC2CCCCCC2)c1` (stereo not given): the activity change, negative = inhibition was 1.52% in assay [1]; -1.83% in assay [2]; 3.9% in assay [3]; -2.23% in assay [4]; 0.007% in assay [5].
Turning to `CC(NC(=O)C1CCCN(c2cnc3nccnc3c2)C1)c1cccnc1` (stereo not given), the activity change, negative = inhibition was -6.83% in assay [1]; -5.48% in assay [2]; -4.43% in assay [3]; -16.4% in assay [4]; -5.46% in assay [5].
Turning to `CCNC(=O)Nc1ccc(OCC(=O)N2CCN(c3ccccn3)CC2)nc1`, the activity change, negative = inhibition was -3.92% in assay [1]; 2.68% in assay [2]; 0.693% in assay [3]; -2.64% in assay [4]; 9.96% in assay [5].
As to `CC(=O)Nc1ccccc1NC(=O)CN1CCN(Cc2ncccc2C)CC1`, the activity change, negative = inhibition in assay [1] is -4.21%; in assay [2] it was -10.2%; in assay [3] it was -3.13%; in assay [4], -7.56%; in assay [5], -0.109%.
For `COCc1ncc(C)n1C1CCCN(C(=O)CCCc2ccccc2)C1` (stereo not given) the same measures were -3.42%, -1.94%, -1.3%, -3.95% and 3.12%.
Take `CC1CCCC(O)CCC/C=C/c2cc(OS(=O)(=O)O)cc(O)c2C(=O)O1` (stereo not given): the activity change, negative = inhibition in assay [1] is -36.5%; in assay [2], -5.74%; in assay [3] it was -45.4%; in assay [4] it was -18.9%; in assay [5] it was -17.9%.
Regarding `COCCNC(=O)c1cc2n(n1)CC(C)(C(=O)NCc1ccccc1)N(C)C2=O` (stereo not given), the activity change, negative = inhibition in assay [1] is 3.66%; in assay [2], 3.88%; in assay [3] it was -1.83%; in assay [4], 4.51%; in assay [5], -0.932%.
The like results for `Cc1ccc(Cl)cc1NC(=O)Cn1nc2n(CC(C)C)c(=O)c3ccccc3n2c1=O` were, in that order, -4.11%, 1.29%, -1.52%, -8.33% and -6.1%.
Take `CC(=O)NC1CC2(CCN(Cc3ccc(O)cc3)CC2)c2ccccc21` (stereo not given): the activity change, negative = inhibition in assay [1] is -6.55%; in assay [2], -6.36%; in assay [3], -51.9%; in assay [4] it was -13.6%; in assay [5] it was -13.2%.
Regarding `COc1ccc(C2(N(C)C(=O)c3ccc(NC(=O)c4ccco4)cc3)CCOCC2)cc1`, the activity change, negative = inhibition is -6.24% in assay [1]; -10.3% in assay [2]; 1.53% in assay [3]; -23.4% in assay [4]; -14.8% in assay [5].
`Cc1ccc(Cn2c(=O)c3ccccc3n3c(CCC(=O)NCCCOC(C)C)nnc23)cc1`: the activity change, negative = inhibition was -5.85% in assay [1]; 4.47% in assay [2]; 3.08% in assay [3]; 9.06% in assay [4]; -4.22% in assay [5].
`CCCn1c(=O)c2ccc(Cl)cc2n2c(=O)n(CC(=O)Nc3ccc(C)cc3Cl)nc12`: the activity change, negative = inhibition in assay [1] is -0.172%; in assay [2], 0.445%; in assay [3] it was 0.703%; in assay [4], -5.08%; in assay [5], -3.28%.
For `O=C(NCCO)c1cccc(-c2cc(Nc3ccc(OC(F)(F)F)cc3)ncn2)c1` the same measures were -7.21%, 10.2%, 0.046%, -20.1% and -11.1%.
On to `Cc1ccc(NC(=O)CN(C)S(=O)(=O)c2ccc3[nH]c4c(c3c2)CCCC4)nc1`, for which the activity change, negative = inhibition was -2.5% in assay [1]; -1.55% in assay [2]; -3.95% in assay [3]; -7.25% in assay [4]; -7.34% in assay [5].
In the case of `CCOC(=O)C1CCN(C(=O)CN(C)S(=O)(=O)c2ccc3c(c2)CC(C)N3C(C)=O)CC1` (stereo not given), the activity change, negative = inhibition is 3.92% in assay [1]; 3.81% in assay [2]; 3.58% in assay [3]; -0.659% in assay [4]; 0.392% in assay [5].
Consider `CCCCN(C)C(=O)c1c(C)sc2ccn(CCC)c(=O)c12`, for which the activity change, negative = inhibition is -74.9% in assay [1]; -36.9% in assay [2]; -0.372% in assay [3]; -7.08% in assay [4]; -18.3% in assay [5].
`Cc1cc2c(cc1S(=O)(=O)NCc1ccc(F)cc1)n(C)c(=O)n2C`: the activity change, negative = inhibition in assay [1] came out at 7.02%; in assay [2], 0%; in assay [3] it was 4.04%; in assay [4], 2.78%; in assay [5], 4.18%.
In the case of `CC(C)CCNC(=O)C1(C)Cn2nc(C(=O)NC3CCCC3)cc2C(=O)N1C` (stereo not given), the activity change, negative = inhibition in assay [1] is 3.39%; in assay [2] it was 0%; in assay [3] it was 5.54%; in assay [4] it was 6.59%; in assay [5], 4.51%.
Regarding `CC1(C(=O)NC2CCCCCCC2)Cn2c(ccc2-c2ccco2)C(=O)N1Cc1cccc(Cl)c1` (stereo not given), the activity change, negative = inhibition is -1.47% in assay [1]; 0% in assay [2]; 1.88% in assay [3]; -10.1% in assay [4]; -1.75% in assay [5].
Turning to `COc1cccc(NC(=O)CSc2nnc3[nH]c(=O)c(C)nn23)c1`, the activity change, negative = inhibition in assay [1] amounted to 12.7%; in assay [2], 0%; in assay [3], 10.1%; in assay [4], 2.89%; in assay [5], 5.48%.
